Experimental data: patent US20260176259A1, “NITROGEN-CONTAINING HETEROCYCLIC COMPOUND” (Kyoto University, priority 2022, published 2026)
At least one read-out could not be matched to a standard name with certainty.

System: GLA splicing reporter vector (GLA splicing: exon 4+exon 5 vs exon 4+pseudoexon+exon 5)
Experiment: GLA splicing reporter assay (GFP/RFP fluorescence ratio) in transfected HeLa cells
Assay type: cell-based
Settings: 10 μM evaluation compound, 0.1% DMSO, HeLa cell line, 16 hours after addition; GFP signal/RFP signal ratio, with ratio of 10 μM positive control 2-chloro-6-(2-furylmethyl)purine as 1

In order of rising GLA_Signal_REC_10_2:
1. CC(=O)N1CCCC1COc1cccc2c(NCc3ccco3)nc(Cl)nc12 (centres unmarked) [Example 66]  0.92
2. Clc1nc(NCc2ccco2)c2cccc(OCC3CCCO3)c2n1 (centres unmarked) [Example 65]  0.96
3. C[C@@H]1C[C@H](COc2cccc3c(NCc4ccccc4)nc(Cl)nc23)NC1=O [Example 71]  1.06
4. Clc1nc(NCc2ccco2)c2cccc(OCC3CCCCC3)c2n1 [Example 64]  1.09
5. CN1CC(COc2c(Cl)ccc3c(NCc4ccco4)nc(Cl)nc23)OC1=O (centres unmarked) [Example 37, 5-[({2,7-Dichloro-4-[(furan-2-ylmethyl)amino]quinazolin-8-yl}oxy)methyl]-3-methyl-1,3-oxazolidin-2-one]  1.11
6. FC(F)(F)C1(COc2cccc3c(NCc4ccco4)nc(Cl)nc23)CCC1 [Example 63]  1.12
7. O=C1CC(COc2cccc3c(NCc4ccccc4)nc(Cl)nc23)CN1 (centres unmarked) [Example 72]  1.15
8. CC1(C)OCC(COc2cccc3c(NCc4ccco4)nc(Cl)nc23)CO1 [Example 24, 2-Chloro-8-[(2,2-dimethyl-1,3-dioxan-5-yl)methoxy]-N-(furan-2-ylmethyl)quinazolin-4-amine]  1.24
9. CS(=O)(=O)N1CCC(COc2cccc3c(NCc4ccco4)nc(Cl)nc23)C1 (centres unmarked) [Example 23, 2-Chloro-N-(furan-2-ylmethyl)-8-{[1-(methylsulfonyl)pyrrolidin-3-yl]methoxy}quinazolin-4-amine]  1.26
10. Clc1nc(NCc2ccco2)c2cccc(OCc3ccoc3)c2n1 [Example 62]  1.26
11. CC(=O)N1CC(COc2cccc3c(NCc4ccco4)nc(Cl)nc23)C1 [Example 61]  1.3
12. Cc1oc(=O)oc1COc1cccc2c(NCc3ccco3)nc(Cl)nc12 [Example 76]  1.3
13. Clc1nc(NCc2ccco2)c2cccc(OCC3CCCC3)c2n1 [Example 60]  1.37
14. O=C1OC(COc2cccc3c(NCc4ccccc4)nc(Cl)nc23)CN1CCO (centres unmarked) [Example 42, 5-({[4-(Benzylamino)-2-chloroquinazolin-8-yl]oxy}methyl)-3-(2-hydroxyethyl)-1,3-oxazolidin-2-one]  1.39
15. C[C@H]1C[C@H](COc2cc(Cl)cc3c(NCc4ccco4)nc(Cl)nc23)NC1=O [Example 35, (3S,5R)-5-[({2,6-Dichloro-4-[(furan-2-ylmethyl)amino]quinazolin-8-yl}oxy)methyl]-3-methylpyrrolidin-2-one]  1.5
16. O=C1CCCC(COc2cccc3c(NCc4ccco4)nc(Cl)nc23)N1 (centres unmarked) [Example 77]  1.68
17. O=C1CCCC1COc1cccc2c(NCc3ccco3)nc(Cl)nc12 (centres unmarked) [Example 30, 2-[({2-Chloro-4-[(furan-2-ylmethyl)amino]quinazolin-8-yl}oxy)methyl]cyclopentanone]  1.81
18. Clc1nc(NCc2ccco2)c2cccc(OCC3CC4(COC4)C3)c2n1 [Example 59]  1.81
19. O=C1NC(COc2cccc3c(NCc4ccco4)nc(Cl)nc23)CN1Cc1ccccc1 (centres unmarked) [Example 58]  1.84
20. O=C1OC(COc2cccc3c(NCc4ccccc4)nc(Cl)nc23)CN1CCF (centres unmarked) [Example 41, 5-({[4-(Benzylamino)-2-chloroquinazolin-8-yl]oxy}methyl)-3-(2-fluoroethyl)-1,3-oxazolidin-2-one]  1.86
21. O=C1COCC(COc2cccc3c(NCc4ccco4)nc(Cl)nc23)N1 (centres unmarked) [Example 57]  2.06
22. C[C@H]1C[C@H](COc2cccc3c(NCc4ccccc4)nc(Cl)nc23)NC1=O [Example 70]  2.11
23. COC1=NOC(COc2cccc3c(NCc4ccco4)nc(Cl)nc23)C1 (centres unmarked) [Example 56]  2.15
24. Clc1nc(NCc2ccco2)c2cccc(OCCC3COCCO3)c2n1 (centres unmarked) [Example 55]  2.3
25. CN1CC(COc2cccc3c(NCc4ccco4)nc(Cl)nc23)CC1=O (centres unmarked) [Example 75]  2.5
26. O=C1OCC(COc2cccc3c(NCc4ccco4)nc(Cl)nc23)O1 (centres unmarked) [Example 54]  2.54
27. O=C1OCCN1CCOc1cccc2c(NCc3ccco3)nc(Cl)nc12 [Example 53]  2.69
28. Clc1nc(NCc2ccco2)c2cccc(OCc3ccco3)c2n1 [Example 52]  2.72
29. CN1CC(COc2cccc3c(NCc4ccco4)nc(Cl)nc23)CS1(=O)=O (centres unmarked) [Example 51]  2.78
30. FC(F)OC1CC(COc2cccc3c(NCc4ccco4)nc(Cl)nc23)C1 (centres unmarked) [Example 33, 2-Chloro-8-{[3-(difluoromethoxy)cyclobutyl]methoxy}-N-(furan-2-ylmethyl)quinazolin-4-amine]  2.79
31. CC(=O)N1CCC(COc2cccc3c(NCc4ccco4)nc(Cl)nc23)C1 (centres unmarked) [Example 22, 1-{3-[({2-Chloro-4-[(furan-2-ylmethyl)amino]quinazolin-8-yl}oxy)methyl]pyrrolidin-1-yl}ethanone]  2.81
32. C[C@H]1C[C@H](COc2cccc3c(NCc4ccco4)nc(Cl)nc23)NC1=O [Example 50]  2.96
33. O=C1NC2(CC2)C(COc2cccc3c(NCc4ccco4)nc(Cl)nc23)O1 (centres unmarked) [Example 49]  3.13
34. O=C1NCCC(COc2cccc3c(NCc4ccco4)nc(Cl)nc23)O1 (centres unmarked) [Example 74]  3.18
35. CN1CC(COc2cccc3c(NCc4ccccc4)nc(Cl)nc23)OC1=O (centres unmarked) [Example 40, 5-({[4-(Benzylamino)-2-chloroquinazolin-8-yl]oxy}methyl)-3-methyl-1,3-oxazolidin-2-one]  3.23
36. O=C1NC(COc2cccc3c(NCc4ccco4)nc(Cl)nc23)CO1 (centres unmarked) [Example 67]  3.52
37. O=C1CC(COc2cccc3c(NCc4ccco4)nc(Cl)nc23)N1 (centres unmarked) [Example 80]  3.57
38. O=C1OC(COc2cccc3c(NCc4ccco4)nc(Cl)nc23)CN1c1ccccc1 (centres unmarked) [Example 69]  3.61
39. O=S1(=O)CCC(COc2cccc3c(NCc4ccco4)nc(Cl)nc23)C1 (centres unmarked) [Example 48]  3.64
40. O=C1NCCN1CCOc1cccc2c(NCc3ccco3)nc(Cl)nc12 [Example 47]  3.68
41. O=C1NC[C@@H](COc2cccc3c(NCc4ccco4)nc(Cl)nc23)O1 [Example 21, (5S)-5-[({2-Chloro-4-[(furan-2-ylmethyl)amino]quinazolin-8-yl}oxy)methyl]-1,3-oxazolidin-2-one]  3.73
42. FC1(COc2cccc3c(NCc4ccco4)nc(Cl)nc23)CC1 [Example 46]  3.79
43. O=C1OC(COc2cccc3c(NCc4ccco4)nc(Cl)nc23)CN1Cc1ccccc1 (centres unmarked) [Example 68]  3.91
44. Clc1nc(NCc2ccco2)c2cccc(OCC3CCC4(C3)OCCO4)c2n1 (centres unmarked) [Example 27, 2-Chloro-8-(1,4-dioxaspiro[4.4]nonan-7-ylmethoxy)-N-(furan-2-ylmethyl)quinazolin-4-amine]  3.93
45. CN1CC(COc2cc(Cl)cc3c(NCc4ccccc4)nc(Cl)nc23)OC1=O (centres unmarked) [Example 36, 5-({[4-(Benzylamino)-2,6-dichloroquinazolin-8-yl]oxy}methyl)-3-methyl-1,3-oxazolidin-2-one]  4.59
46. O=C1CC(COc2cccc3c(NCc4ccco4)nc(Cl)nc23)CN1 (centres unmarked) [Example 31, 4-[({2-Chloro-4-[(furan-2-ylmethyl)amino]quinazolin-8-yl}oxy)methyl]pyrrolidin-2-one]  4.98
47. Clc1nc(NCc2ccco2)c2cccc(OCC3CCCOC3)c2n1 (centres unmarked) [Example 45]  5.29
48. Clc1nc(NCc2ccco2)c2cccc(OCC3CCOC3)c2n1 (centres unmarked) [Example 44]  5.46
49. O=C1CC[C@@H](COc2cccc3c(NCc4ccco4)nc(Cl)nc23)N1 [Example 79]  5.79
50. FC1(F)CCC1COc1cccc2c(NCc3ccco3)nc(Cl)nc12 (centres unmarked) [Example 26, 2-Chloro-8-[(2,2-difluorocyclobutyl)methoxy]-N-(furan-2-ylmethyl)quinazolin-4-amine]  5.83
51. CC1(C)NC(=O)OC1COc1cccc2c(NCc3ccco3)nc(Cl)nc12 (centres unmarked) [Example 73]  6.27
52. CN1CC(COc2cc(Cl)cc3c(NCc4ccco4)nc(Cl)nc23)OC1=O (centres unmarked) [Example 34, 5-[({2,6-Dichloro-4-[(furan-2-ylmethyl)amino]quinazolin-8-yl}oxy)methyl]-3-methyl-1,3-oxazolidin-2-one]  6.51
53. O=C1CCC(COc2cccc3c(NCc4ccco4)nc(Cl)nc23)C1 (centres unmarked) [Example 28, 3-[({2-Chloro-4-[(furan-2-ylmethyl)amino]quinazolin-8-yl}oxy)methyl]cyclopentanone]  6.54
54. OC1CC(COc2cccc3c(NCc4ccco4)nc(Cl)nc23)C1 (centres unmarked) [Example 32, 3-[({2-Chloro-4-[(furan-2-ylmethyl)amino]quinazolin-8-yl}oxy)methyl]cyclobutanol]  6.66
55. CN1CC(COc2cccc3c(NCc4ccccc4)cc(Cl)nc23)OC1=O (centres unmarked) [Example 43, 5-({[4-(Benzylamino)-2-chloroquinolin-8-yl]oxy}methyl)-3-methyl-1,3-oxazolidin-2-one]  6.76
56. Clc1cc(NCc2ccco2)c2cccc(OCC3COCCO3)c2n1 (centres unmarked) [Example 38, 2-Chloro-8-(1,4-dioxan-2-ylmethoxy)-N-(furan-2-ylmethyl)quinolin-4-amine]  7.48
57. O=C1NCC(COc2cccc3c(NCc4ccco4)cc(Cl)nc23)O1 (centres unmarked) [Example 39, 5-[({2-Chloro-4-[(furan-2-ylmethyl)amino]quinolin-8-yl}oxy)methyl]-1,3-oxazolidin-2-one]  8.94
58. O=C1CC[C@H](COc2cccc3c(NCc4ccco4)nc(Cl)nc23)N1 [Example 78]  9.48
59. O=C1CCC(COc2cccc3c(NCc4ccco4)nc(Cl)nc23)N1 (centres unmarked) [Example 25, 5-[({2-Chloro-4-[(furan-2-ylmethyl)amino]quinazolin-8-yl}oxy)methyl]pyrrolidin-2-one]  10.1
